The other results are listed elsewhere or left out.

One assay has as its system HSkMC. The experiment in a line: cytotoxicity call (relative viability < 0.9). The settings on record: 10 µM.
Another assay relates to HepG2. The experiment in a line: cytotoxicity call (relative viability < 0.9). The settings on record: 10 µM.
Another assay concerns S. aureus RN4220. Put plainly: growth inhibition call (relative growth <= 0.2). The settings on record: 50 µM.

As for `C[C@H](CO)N1C[C@H](C)[C@H](CN(C)C(=O)Nc2ccc(C(F)(F)F)cc2)OCCCC[C@H](C)Oc2ccc(NS(=O)(=O)c3ccc(Cl)cc3)cc2C1=O`, the cytotoxicity call in the assay on HSkMC is “inactive”. Moreover, the cytotoxicity call with HepG2 is “active”. In the assay on S. aureus RN4220, the growth inhibition call was “inactive”.
`COc1ccc(-c2coc3cc(O)cc(O)c3c2=O)cc1`: the cytotoxicity call in the assay with HSkMC and with HepG2 was “inactive” throughout. Also, the growth inhibition call in the assay on S. aureus RN4220 is “inactive”.
In the case of `C[C@H](CO)N1C[C@H](C)[C@@H](CN(C)C(=O)Nc2ccc(C(F)(F)F)cc2)OCCCC[C@H](C)Oc2ccc(NC(=O)Nc3ccccc3)cc2C1=O`, the cytotoxicity call in the assay with HSkMC and with HepG2 was “inactive” in each case. Moreover, the growth inhibition call with S. aureus RN4220 is “inactive”.
On to `C[C@H](CO)N1C[C@H](C)[C@H](CN(C)S(=O)(=O)c2ccc(F)cc2)Oc2ccc(NC(=O)CCCN(C)C)cc2C1=O`, for which the cytotoxicity call with HSkMC and with HepG2 was “inactive” throughout. The growth inhibition call with S. aureus RN4220 is “inactive”.
Take `Cc1ccc(S(=O)(=O)N(C)C[C@@H]2OCCCC[C@H](C)Oc3ccc(NC(=O)Nc4ccc(F)cc4)cc3C(=O)N([C@@H](C)CO)C[C@H]2C)cc1`: the cytotoxicity call in the assay with HSkMC and in the assay with HepG2 was “inactive” throughout. For the same compound, in the assay with S. aureus RN4220, the growth inhibition call is “inactive”.
Regarding `O=S1(=O)[C@@H]2C[C@H]3C=C[C@]2(CN1C1CC1)O3`, the cytotoxicity call in the assay with HSkMC and in the assay with HepG2 was “inactive” each time. Besides, the growth inhibition call with S. aureus RN4220 is “inactive”.
In the case of `C[C@@H]1CCCCO[C@H](CN(C)Cc2ccc(C(=O)O)cc2)[C@H](C)CN([C@@H](C)CO)C(=O)c2cc(NC(=O)Nc3ccccc3)ccc2O1`, the cytotoxicity call in the assay on HSkMC and in the assay with HepG2 was “inactive” in each case. For the same compound, the growth inhibition call in the assay with S. aureus RN4220 is “inactive”.
`C[C@H]1CN([C@@H](C)CO)C(=O)c2cc(NC(=O)Cn3cnnn3)ccc2O[C@@H]1CN(C)Cc1ccc(C(=O)Nc2ccccc2N)cc1`: the cytotoxicity call in the assay on HSkMC and in the assay with HepG2 was “inactive” throughout. The growth inhibition call in the assay on S. aureus RN4220 is “inactive”.
For the compound `C[C@H](CO)N1C[C@H](C)[C@H](CN(C)Cc2ccc(C(=O)O)cc2)Oc2ccc(NC(=O)Nc3ccc(C(F)(F)F)cc3)cc2C1=O`, the cytotoxicity call with HSkMC and in the assay with HepG2 was “inactive” throughout. Also, the growth inhibition call in the assay with S. aureus RN4220 was “inactive”.
On to `COC(=O)c1c2oc(c1C(=O)OC)C(=O)N[C@H](Cc1ccccc1)Cn1cc(nn1)[C@@H](Cc1ccccc1)NC(=O)N[C@H](COC(=O)NCCCCCC(=O)NO)CC2`, for which the cytotoxicity call with HSkMC and in the assay with HepG2 was “inactive” in each case. Moreover, the growth inhibition call in the assay on S. aureus RN4220 was “inactive”.
Consider `Cc1ncc(NC(=O)c2ccc(CN3CCN(C)CC3)c(C(F)(F)F)c2)cc1Nc1nccc(-c2cccnc2)n1`, for which the cytotoxicity call in the assay on HSkMC was “inactive”. In addition, the cytotoxicity call with HepG2 was “active”. Further, in the assay on S. aureus RN4220, the growth inhibition call was “inactive”.
For `C[C@@H]1CCCCO[C@@H](CN(C)CC2CCCCC2)[C@H](C)CN([C@@H](C)CO)C(=O)c2cc(NC(=O)NC3CCCCC3)ccc2O1`, the cytotoxicity call with HSkMC and with HepG2 was “inactive” each time. Further, the growth inhibition call in the assay with S. aureus RN4220 was “inactive”.
`Cc1c(C(N)=O)sc2[nH]cnc(=O)c12`: the cytotoxicity call in the assay on HSkMC and with HepG2 was “inactive” each time. Also, the growth inhibition call in the assay with S. aureus RN4220 was “inactive”.
Take `CC(C)(C)[S@@](=O)N1Cc2cc3nc(-c4cccc(Br)c4)c2[C@H]1CCOC(=O)c1cc2c(c(-c4cccc(Br)c4)n1)[C@@H](CCOC3=O)N([S@](=O)C(C)(C)C)C2`: the cytotoxicity call in the assay on HSkMC and in the assay with HepG2 was “inactive” in each case. In addition, in the assay on S. aureus RN4220, the growth inhibition call is “inactive”.
With `O=C(C[C@H]1CC[C@@H]2[C@H](COC[C@@H](O)CN2S(=O)(=O)c2ccc(F)cc2)O1)NCCN1CCCCC1`, the cytotoxicity call with HSkMC and with HepG2 was “inactive” throughout. Moreover, the growth inhibition call in the assay on S. aureus RN4220 is “inactive”.
As for `CN1CCN(C(=O)C[C@H]2C=C[C@H](NS(=O)(=O)c3cccc(F)c3)[C@H](CO)O2)CC1`, the cytotoxicity call with HSkMC and in the assay with HepG2 was “inactive” in each case. Moreover, the growth inhibition call in the assay with S. aureus RN4220 was “inactive”.
Take `C[C@H](CO)N1C[C@H](C)[C@H](CN(C)C(=O)CN(C)C)Oc2ncc(C#CC3(O)CCCC3)cc2C1=O`: the cytotoxicity call in the assay on HSkMC and in the assay on HepG2 was “inactive” throughout. Also, the growth inhibition call in the assay with S. aureus RN4220 is “inactive”.
For the compound `C[C@@H]1CN([C@@H](C)CO)C(=O)c2cccc(NC(=O)C3CCCCC3)c2O[C@H]1CN(C)Cc1ccc(Oc2ccccc2)cc1`, the cytotoxicity call in the assay on HSkMC (human skeletal muscle cells) and with HepG2 was “inactive” throughout. Further, in the assay with S. aureus RN4220, the growth inhibition call is “inactive”.
In the case of `C[C@H]1CCCCO[C@H](CN(C)C(=O)Nc2cccc3ccccc23)[C@@H](C)CN([C@@H](C)CO)C(=O)c2cc(NC(=O)c3ccncc3)ccc2O1`, the cytotoxicity call with HSkMC and in the assay with HepG2 was “inactive” throughout. The growth inhibition call in the assay with S. aureus RN4220 is “inactive”.
For `CN(C)C(=O)[C@@H]1[C@@H](CO)[C@@H]2Cn3c(ccc(C4=CCCC4)c3=O)[C@H]1N2S(=O)(=O)c1cn(C)cn1`, the cytotoxicity call with HSkMC and in the assay with HepG2 was “inactive” throughout. Further, the growth inhibition call in the assay on S. aureus RN4220 was “inactive”.

Source of the values: the antibiotic and cytotoxicity screens of Wong et al. (2023).
